# Results as given in publication PMC4336329 (PLoS ONE, 2015).
# Among all 310,000 compounds or so, about 14,000 (4.5%) showed an effect of 50% or more. The effect is printed as a negative number. The list shows a part of the results.
# Biological target: human ether-à-go-go-related gene (hERG) potassium channel (human, UniProt Q12809)
# Test: primary screen, population patch clamp on CHO cells stably expressing hERG
# 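Further: peak tail current of the secondary pulse compared with the same well before compound.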
# Chain of human ether-à-go-go-related gene (hERG) potassium channel (Q12809 whole entry, looked up): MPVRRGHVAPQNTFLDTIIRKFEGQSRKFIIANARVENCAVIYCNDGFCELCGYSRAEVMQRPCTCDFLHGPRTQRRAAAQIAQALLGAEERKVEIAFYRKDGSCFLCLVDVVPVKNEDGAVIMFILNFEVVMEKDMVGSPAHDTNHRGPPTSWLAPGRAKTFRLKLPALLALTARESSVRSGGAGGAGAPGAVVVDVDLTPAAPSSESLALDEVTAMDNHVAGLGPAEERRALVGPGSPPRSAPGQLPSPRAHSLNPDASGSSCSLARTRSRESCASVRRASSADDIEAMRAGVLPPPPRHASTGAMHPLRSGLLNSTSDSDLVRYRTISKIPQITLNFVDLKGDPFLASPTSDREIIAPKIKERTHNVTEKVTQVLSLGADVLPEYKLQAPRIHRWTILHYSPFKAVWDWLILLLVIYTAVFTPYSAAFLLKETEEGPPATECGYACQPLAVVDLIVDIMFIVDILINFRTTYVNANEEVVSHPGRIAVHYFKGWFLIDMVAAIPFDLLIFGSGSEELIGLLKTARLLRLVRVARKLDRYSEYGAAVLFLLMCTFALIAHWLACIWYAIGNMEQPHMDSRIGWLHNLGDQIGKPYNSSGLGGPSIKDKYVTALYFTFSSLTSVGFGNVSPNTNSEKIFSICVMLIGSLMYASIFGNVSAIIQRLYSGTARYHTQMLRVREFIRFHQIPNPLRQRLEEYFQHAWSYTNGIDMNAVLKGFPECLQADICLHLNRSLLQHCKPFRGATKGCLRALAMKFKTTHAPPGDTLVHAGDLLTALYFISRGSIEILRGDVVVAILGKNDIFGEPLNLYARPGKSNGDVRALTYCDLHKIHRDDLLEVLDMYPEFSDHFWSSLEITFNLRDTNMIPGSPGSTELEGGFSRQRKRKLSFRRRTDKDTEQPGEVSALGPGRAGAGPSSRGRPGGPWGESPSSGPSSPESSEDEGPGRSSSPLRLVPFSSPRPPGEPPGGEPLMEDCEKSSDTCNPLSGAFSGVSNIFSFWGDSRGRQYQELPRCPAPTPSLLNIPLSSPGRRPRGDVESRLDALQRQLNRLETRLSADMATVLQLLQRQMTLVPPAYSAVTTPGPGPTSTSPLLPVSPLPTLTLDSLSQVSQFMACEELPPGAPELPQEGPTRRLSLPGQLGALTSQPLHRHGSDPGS
row,Compound,"hERG current change (%, negative = inhibition) at 10uM"
1,NCCNC(=O)Cc1ccc(NC(=O)Cc2ccc(Nc3ncnc4c3ncn4[C@@H]3O[C@H](CO)[C@@H](O)[C@H]3O)cc2)cc1,18%
2,COc1cccc2c(=S)c(CCC(C)=O)c(C)[nH]c12,-8.7%
3,Cc1cccc(/C=N/NC(=O)Cn2nccc2C)n1,0.634%
4,Cc1ccc(N2CCN(C(=O)c3cn(CC4CCCCC4)nn3)C(C)C2)cc1 (stereo not shown),-20.9%
5,COc1cccc(-c2ccc3ncnc(NCc4cc(C)cs4)c3c2)c1,-7.61%
6,CN(C(=O)c1ccno1)c1nnc(-c2cccnc2)s1,2.98%
7,CN1C(=O)Cc2cc(S(=O)(=O)N3CCOCC3)ccc21,-3.02%
8,Cc1ccc(NC(=O)CSc2ccccc2NC(=O)c2ccccc2Cl)cc1Cl,1.55%
9,CCn1nc(C)c(NC(=O)c2ccc(Br)o2)c1C,1.96%
10,COc1ccc(CNC(=O)COc2ccc(C(=O)c3ccc(F)cc3)cc2)cc1,-9.93%
11,O=S(=O)(Nc1nc2ccccc2nc1Cl)c1ccc(Cl)cc1,-15.9%
12,Cc1cc(C)cc(N2C(=O)NC(=O)/C(=C\C=C\c3ccco3)C2=O)c1,-13.8%
13,CC1(C)CC2CC(C)(CN2C(=O)C23CCC(C)(C(=O)C2)C3(C)C)C1 (stereo not shown),-4.28%
14,Cc1ccc(C(=O)N2CCC(C(=O)NCc3ccco3)CC2)cc1,-11.3%
15,COC(=O)c1ccccc1-c1ccc(/C=N/NC(=O)c2cc3ccccc3o2)o1,-48.4%
16,O=C1C2CCCN2C(c2cccs2)N1c1ccc(F)cc1 (stereo not shown),14.6%
17,CC1CN(S(=O)(=O)c2cccc(C(=O)Nc3ccc(S(=O)(=O)NC4=NCCCCC4)cc3)c2)CC(C)O1 (stereo not shown),-5.97%
18,Cc1oc(-c2ccccc2)nc1C(=O)N1CCN(c2ccc(F)cc2)CC1,8.75%
19,O=c1c2c([N+](=O)[O-])cc([N+](=O)[O-])cc2nc2ccccn12,6.04%
20,Cn1cc(Cl)c(C(=O)N(Cc2ccccc2)c2ccccn2)n1,4.98%
21,Cc1cc(OC(=O)c2ccccc2)n(CCC#N)n1,8.73%
22,Cc1ccc(-c2nc(CS(=O)CC(=O)NC3CCCC3)c(C)o2)cc1 (stereo not shown),-13.3%

row,Compound,"hERG current change (%, negative = inhibition) at 10uM"
1,CCOC(=O)c1cc(-c2ccccc2)n(CC(=O)Nc2cccc(OC)c2)c1C,-2.67%
2,Cn1cnnc1SCC(=O)Nc1ccccc1Oc1ccccc1,5.73%
3,CCOc1ccc(Nc2nc(Cl)nc(NCCO)n2)cc1,3.29%
4,CN(CC(=O)O)S(=O)(=O)/C=C/c1ccccc1,24.5%
5,CCOc1ccc(C)cc1S(=O)(=O)Nc1ccc(Cl)cn1,-3.98%
6,COc1ccccc1NC(=S)NNC(=O)c1ccc(O)cc1,5.86%
7,CC(C)(C)C(=O)Nc1sc2c(c1C#N)CCCCC2,2.28%
8,C=CCNC(=S)Nc1cccc([N+](=O)[O-])c1,2.65%
9,O=[N+]([O-])c1cnc(Sc2ccncn2)s1,8.45%
10,O=C1/C(=C/c2cccnc2)SC(=S)N1CCc1ccccc1,4.28%
11,CCn1c(=O)c(CCC(=O)N2CCOCC2)c(C)c2c(C)nn(-c3ccccc3)c21,-1.23%
12,COc1ccc(S(=O)(=O)N2CCOCC2)cc1NC(=O)COc1cccnc1[N+](=O)[O-],17.1%
13,CCOC(=O)NC(=O)COC(=O)c1cccc2ccccc12,-36.5%
14,COc1ccc(S(=O)(=O)N(C)CC(=O)N2CCN(C)CC2)cc1C,9.49%
15,COc1ccc(C2C(=O)N(CCc3ccccc3)CC(=O)N2C2CCCC2)cc1 (stereo not shown),-21.8%
16,COC(=O)c1cc(OC)c(OC)cc1N1C(=O)CCCC1=O,21.7%
17,O=C(CSc1ncn[nH]1)N1CCN(S(=O)(=O)c2ccccc2)CC1,13.3%
18,COc1ccc(-c2noc(CCN3C(=O)c4ccccc4C3=O)n2)cc1OC,-4.91%
19,CCN1C/C(=C/c2ccc(N3CCOCC3)cc2)C(=O)/C(=C/c2ccc(N3CCOCC3)cc2)C1,4.37%
20,COc1ccccc1N=Cc1nc(-c2ccccc2)oc1OC(C)=O,4.46%
21,O=C(O)c1ccc2c(c1)NC(=O)C(N1CCCC1)S2 (stereo not shown),12%
22,Cc1cc2c([nH]c3ccccc32)c2c1OC(C)(C)C=C2,5.61%

row,Compound,"hERG current change (%, negative = inhibition) at 10uM"
1,COc1ccccc1CN(Cc1nc2ccccc2c(=O)[nH]1)C(=O)Nc1cccc(C)c1,-9.59%
2,Cc1ccc(CS(=O)(=O)c2ncc(Cl)c(C(=O)Nc3nnc(C)s3)n2)cc1,3.35%
3,CC(=O)C1=C(C)NC(SCC(=O)c2ccc(C)cc2)=C(C#N)C1c1ccco1 (stereo not shown),-9.08%
4,COc1cccc(CNCCNC(=O)c2ccco2)c1OC.O=C(O)C(=O)O,-6.05%
5,CCC1CCc2c([nH]c3ccccc3c2=O)O1 (stereo not shown),-2.41%
6,COc1ccccc1N1CCN(C(=O)CSc2ncnc3scc(-c4ccccc4)c23)CC1,1.5%
7,Clc1nc2ccccc2cc1/C=N/Nc1nc2ccccc2[nH]1,11.6%
8,COc1ccc(-c2ccc(-c3nnc(Cc4ccc(OC)c(OC)c4)o3)cc2)cc1,-11%
9,O=C1c2cccc(OCc3ccc(F)cc3)c2CCN1Cc1ccccc1,4.56%
10,COc1cc(CN2CCN(c3cccc(Cl)c3)CC2)cc(OC)c1OC,-35.7%
11,COC(=O)C1=C(c2ccc(F)cc2OCc2ccccc2)C[C@@H]2CC[C@H]1N2C(=O)N1CCOCC1,-15.6%
12,Cc1ccc(S(=O)(=O)NNC(=O)c2ccccc2-n2cccc2)cc1,0.548%
13,COc1ccc(N(CN2C(=O)C3C4C=CC(C4)C3C2=O)C(=O)c2ccco2)cc1 (stereo not shown),-4.13%
14,CCOC(=O)c1c(S(=O)(=O)NCC2CCN(CCc3cccs3)CC2)c(C)n(C)c1C,-49.5%
15,Cc1cccc(OCCCC(=O)NCCc2ccccc2)c1,2.83%
16,Cc1cc(C)c(S(=O)(=O)Nc2ccc(C(=O)O)cc2)cc1S(=O)(=O)Nc1ccc(C(=O)O)cc1,10.8%
17,Cc1cc(C)n(-c2nnc(C)n2NS(C)(=O)=O)n1,14.6%
18,COCCNC(=O)c1ccc(S(=O)(=O)c2ccc(Cl)cc2)c(NC(C)=O)c1,9.68%
19,Cc1cc(N/N=C/c2ccc(F)cc2)nc(-n2nc(C)cc2C)n1,17.1%
20,Cc1ccc(Cl)cc1NC(=O)COC(=O)Cn1cnc2c1c(=O)n(C)c(=O)n2C,0.977%
21,COCCCNC(=O)Cn1cc2c(n1)CCCCC2,16.8%
22,Cn1nnnc1SCC(=O)Nc1cccc(S(=O)(=O)N2CCCC2)c1,23.2%

row,Compound,"hERG current change (%, negative = inhibition) at 10uM"
1,CC(C)O/N=C1\C(=O)N(c2ccccc2)c2ccccc21,-15.5%
2,Cn1cc(Br)c(C(=O)Nc2sc3c(c2C(N)=O)CCCC3)n1,22.8%
3,O=C1CC(c2ccccc2)n2nc(NC(=O)c3ccccn3)nc2N1 (stereo not shown),-7.8%
4,COC(=O)C1CCN(C(=O)Cn2nnc(-c3ccccc3)n2)CC1,14.4%
5,Cc1cc(C)n(-c2ccc(C(=O)Nc3ccc(N4CCOCC4)cc3)cc2)n1,7.47%
6,O=C(O)CCCn1c(=O)[nH]c2ccccc2c1=O,4.41%
7,COc1cc(CNc2ccc3[nH]c(=O)[nH]c3c2)ccc1OCc1ccc(F)cc1,13.3%
8,O=C1C=CC(=O)N1CCCCCCN1C(=O)C=CC1=O,-21.5%
9,COc1ccc2nc(SCc3nc(N)nc(Nc4ccccc4)n3)[nH]c2c1,-47.1%
10,CCC(C(=O)N/N=C(\C)c1cccnc1)c1ccccc1 (stereo not shown),10.4%
11,COc1cc2c(cc1OC)C1C(C(=O)Nc3ccccc3N3CCN(C)CC3)c3ccccc3C(=O)N1CC2 (stereo not shown),-26.8%
12,O=C(CN1C(=O)NC2NC(=O)NC21)N/N=C/c1ccc(F)cc1 (stereo not shown),18.3%
13,Cc1nc2cc(NC(=O)Nc3nccs3)ccc2n1C,-6.22%
14,Nc1cc(Cl)cc(C(=O)O)c1Cl,15.9%
15,c1ccc(-c2csc(-c3ccc(-c4csnn4)cc3)n2)cc1,17.6%
16,COc1cc2c(cc1OC)C(c1ccncc1)CC(=O)N2 (stereo not shown),5.44%
17,CCOC(=O)c1cc2c(=O)n3ccccc3nc2n(Cc2ccco2)c1=NC(=O)c1cccc(OC)c1,-43.8%
18,Fc1ccc(-c2nnc(Cc3nnc(-c4ccc(F)cc4)o3)o2)cc1,10.8%
19,COc1ccc(CNC(=O)C2CCN(C(=O)c3ccccc3)CC2)cc1,-2.46%
20,COC(=O)c1ccc(COC(=O)CNS(=O)(=O)c2ccccc2)cc1,7.79%
21,O=C(CSc1nnnn1-c1cccnc1)NCc1cccs1,9.62%
22,COc1ccc(N(CC(=O)NC2CCCCCC2)S(=O)(=O)c2ccccc2)cc1Cl,11.3%
